Our source for the TGI and GI50 values is PubChem BioAssay (NCI).

Some test systems named below: OVCAR-4 ovarian; IGROV1 ovarian; SF-539 CNS; SK-OV-3 ovarian; RPMI-8226 leukemia; RXF 393 renal; SK-MEL-28 melanoma; MCF7 breast; M19-MEL melanoma; DMS 114 small cell lung; A549 NSCLC; XF 498 CNS; SNB-78 CNS; SW-620 colon; CAKI-1 renal; LOX IMVI melanoma; COLO 205 colon; M14 melanoma; SF-268 CNS; HOP-92 NSCLC; EKVX NSCLC; SNB-75 CNS; SK-MEL-2 melanoma; ACHN renal; 786-0 renal; U251 CNS; OVCAR-3 ovarian; UACC-62 melanoma; MOLT-4 leukemia; A498 renal; SK-MEL-5 melanoma; MALME-3M melanoma; HCT-15 colon; K-562 leukemia; CCRF-CEM leukemia; P388 leukemia; P388/ADR leukemia.

Common to all, as to assay: NCI tumour cell line growth inhibition, 48 h

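96-well plates; 48 h exposure; 5 concentrations. Endpoints by linear interpolation between flanking doses. Not reached: highest tested concentration assigned. Abbreviation: GI50, concentration required for 50% inhibition of growth.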 Some entries of the source have several records that differ or are many. The list is limited to them. There may be further records. A record mostly stands for its own series of concentrations, which the source does not state; some values may only mark the edge of a range.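 TGI marks complete inhibition of growth.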

Consider `O=C1N[C@H]2[C@H](O)[C@H](O)[C@@H](O)[C@H](O)[C@@H]2c2cc3c(c(O)c21)OCO3`, for which the TGI in the assay with OVCAR-4 ovarian is 704 nM, 2.96 µM, 98.2 nM; in the assay on IGROV1 ovarian, 6.4 µM and 616 nM; in the assay with SF-539 CNS it was 465 nM, 14.1 µM, 94.5 nM; in the assay with SK-OV-3 ovarian, 5.55 µM and 521 nM; with RPMI-8226 leukemia, > 28.2 µM and 429 nM; in the assay on RXF 393 renal, 561 nM, 3.49 µM, 246 nM. Besides, the TGI in the assay on SK-MEL-28 melanoma is 8.69 µM and 269 nM; in the assay with MCF7 breast it was > 100 µM and 317 nM; with M19-MEL melanoma, 4.26 µM and 382 nM; in the assay on DMS 114 small cell lung, 755 nM, 3.68 µM, 148 nM; in the assay with A549 NSCLC it was 22.1 µM and 909 nM; in the assay on XF 498 CNS, 780 nM, 5.89 µM, 66.4 nM. In addition, the TGI with SNB-78 CNS was > 20.2 µM and 447 nM; in the assay with SW-620 colon, 9.25 µM and 538 nM; in the assay with CAKI-1 renal, 3.6 µM and 147 nM; with LOX IMVI melanoma it was 539 nM, 926 nM, 89.2 nM; in the assay on COLO 205 colon, 30.2 µM and 61.7 nM; in the assay with M14 melanoma, 886 nM, 1.09 µM, 98.1 nM. In addition, the TGI is 7.65 µM and 329 nM in the assay on SF-268 CNS; 1.96 µM and 92.7 nM with HOP-92 NSCLC; 881 nM [1 test] and > 15.3 µM [mean of 3 tests] and 307 nM [mean of 8 tests] in the assay with EKVX NSCLC; 881 nM, 8.35 µM, 135 nM in the assay with SNB-75 CNS; 1.64 µM and 119 nM in the assay on SK-MEL-2 melanoma; 2.29 µM and 88.2 nM in the assay with ACHN renal. In addition, the TGI in the assay with 786-0 renal was 5.54 µM and 181 nM; with U251 CNS, > 13.4 µM and 588 nM; with OVCAR-3 ovarian, 926 nM, 1.89 µM, 108 nM; with UACC-62 melanoma, 768 nM, 2.49 µM, 206 nM; in the assay with MOLT-4 leukemia, 2.39 µM and 85.1 nM; with A498 renal, 774 nM, 5.55 µM, 327 nM. The TGI is 757 nM and 53.7 nM in the assay on SK-MEL-5 melanoma; 1.38 µM and 110 nM with MALME-3M melanoma; 11.3 µM and 580 nM in the assay on HCT-15 colon; 8.49 µM and 182 nM with K-562 leukemia. Also, the GI50 with SF-539 CNS was 170 nM [1 test] and 5.98 µM [mean of 3 tests]; with EKVX NSCLC, 308 nM [1 test] and 5.51 µM [mean of 3 tests] and 59.3 nM [mean of 8 tests]; with ACHN renal, 306 nM [1 test] and 30.3 nM [mean of 3 tests].

Consider `CCN(CC)CCCNc1[nH]ncc2c(C)c3nc4ccccc4c3cc12`, for which the TGI in the assay with CCRF-CEM leukemia was 1.54 µM and 72.5 nM.

As to `C[C@@](O)(/C=C/[C@H]1CC=CC(=O)O1)[C@@H](C[C@@H](O)\C=C/C=C\C=C\CO)OP(=O)(O)O`, the TGI was > 3 mM [1 test] and 8.35 µM [mean of 7 tests] in the assay with P388 leukemia; 300 µM [1 test] and 7.38 µM [mean of 4 tests] with P388/ADR leukemia; > 3 mM [1 test] and 188 µM [mean of 9 tests] in the assay with SNB-75 CNS; > 3 mM [1 test] and 19.1 µM [mean of 9 tests] with MOLT-4 leukemia.
